Among all 220,000 compounds or so, about 5,700 (2.6%) were called active. Inconclusive means that the source gave no clear call. Such entries were picked first, then a sample of the others. The call rests on the fitted dose curve; in most records, active means well fitted inhibition curve with a large enough effect; inconclusive means small, poorly fitted or top-dose-only effect; inactive means no such curve, though single readings can be large or run the other way. Where the call is inconclusive, the potency comes from a doubtful curve fit.
Target: Lysine-specific demethylase 5B (Homo sapiens) (UniProt Q9UGL1)
Chain of UniProt Q9UGL1 (Q9UGL1 whole entry, looked up): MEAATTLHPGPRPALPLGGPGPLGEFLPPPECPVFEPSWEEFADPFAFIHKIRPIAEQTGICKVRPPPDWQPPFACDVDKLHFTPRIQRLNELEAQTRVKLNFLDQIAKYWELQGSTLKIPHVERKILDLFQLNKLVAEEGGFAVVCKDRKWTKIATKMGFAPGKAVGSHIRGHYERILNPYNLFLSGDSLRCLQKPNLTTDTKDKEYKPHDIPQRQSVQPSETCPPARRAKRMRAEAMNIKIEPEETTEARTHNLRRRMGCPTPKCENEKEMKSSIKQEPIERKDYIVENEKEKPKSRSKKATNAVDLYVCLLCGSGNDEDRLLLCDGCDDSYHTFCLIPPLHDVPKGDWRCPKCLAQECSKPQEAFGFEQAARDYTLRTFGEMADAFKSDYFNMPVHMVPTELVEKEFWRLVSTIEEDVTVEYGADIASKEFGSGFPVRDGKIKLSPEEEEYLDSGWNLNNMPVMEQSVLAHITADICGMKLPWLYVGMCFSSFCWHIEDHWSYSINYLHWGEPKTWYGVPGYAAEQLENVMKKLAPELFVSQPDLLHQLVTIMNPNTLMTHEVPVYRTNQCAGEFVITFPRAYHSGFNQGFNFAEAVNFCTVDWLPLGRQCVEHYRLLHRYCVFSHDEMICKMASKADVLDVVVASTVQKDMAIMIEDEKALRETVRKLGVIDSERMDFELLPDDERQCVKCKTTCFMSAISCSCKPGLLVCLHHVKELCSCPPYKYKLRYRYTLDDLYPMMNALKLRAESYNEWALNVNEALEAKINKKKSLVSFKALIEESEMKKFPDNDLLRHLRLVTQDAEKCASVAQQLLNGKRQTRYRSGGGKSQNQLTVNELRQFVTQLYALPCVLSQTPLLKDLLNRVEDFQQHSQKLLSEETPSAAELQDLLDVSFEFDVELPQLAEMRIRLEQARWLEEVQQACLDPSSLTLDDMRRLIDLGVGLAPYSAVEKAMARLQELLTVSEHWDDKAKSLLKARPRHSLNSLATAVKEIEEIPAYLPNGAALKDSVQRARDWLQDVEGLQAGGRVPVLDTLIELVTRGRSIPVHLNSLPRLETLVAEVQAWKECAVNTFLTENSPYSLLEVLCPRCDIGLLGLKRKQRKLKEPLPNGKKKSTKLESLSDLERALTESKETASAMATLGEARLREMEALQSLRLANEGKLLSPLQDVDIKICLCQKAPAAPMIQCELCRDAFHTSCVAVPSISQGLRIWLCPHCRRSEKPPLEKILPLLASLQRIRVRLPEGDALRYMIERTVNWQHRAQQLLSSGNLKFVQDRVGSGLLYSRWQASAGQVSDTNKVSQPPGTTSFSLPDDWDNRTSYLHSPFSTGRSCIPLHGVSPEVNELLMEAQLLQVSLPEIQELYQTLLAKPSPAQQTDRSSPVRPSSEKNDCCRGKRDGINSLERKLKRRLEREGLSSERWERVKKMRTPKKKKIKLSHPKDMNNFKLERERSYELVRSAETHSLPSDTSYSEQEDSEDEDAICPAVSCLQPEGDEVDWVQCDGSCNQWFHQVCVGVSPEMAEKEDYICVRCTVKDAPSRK
Assay: Primary screen for KDM5B Histone Demethylases FDH-coupled qHTS; further: nearly all actives have a fitted effect of over 70% in size; on activity change, negative = inhibition: 0% is about no effect
Settings: FDH-coupled NADH fluorescence (FDH is formaldehyde dehydrogenase); activity change, negative = inhibition: at 57.7 µM (top of the series) unless noted
Procedure, shortened: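 Inhibition is measured as reduced NADH fluorescence generation from FDH coupling to formaldehyde release. Truncated KDM5BΔAP at 200 nM final acts on H3K4me3 peptide (12.5 µM in substrate mix) in pH 7.5 HEPES buffer with Tween-20, 30 min, room temperature.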
Potency means the concentration at half of the fitted maximal effect; tags describe the fitted curve by direction and shape.

SMILES | Potency | activity change, negative = inhibition
CCOc1cc(CNc2ccc(O)cc2)ccc1OCc1ccc(Cl)cc1 | inconclusive: 5.62 µM [inhibitor, partial curve, poor fit] | 
S=C(NCCc1ccc(Cl)cc1Cl)NC1CCCCC1 | inactive | 
O=C(CCC[C@@H]1[C@H]2CCCN3CCC[C@@H](CN1C(=O)c1cccs1)[C@@H]23)N1CCOCC1 | inconclusive: 25.1 µM [inhibitor, single point] | 
O=C1C(CSCc2ccccc2)NC(=S)N1c1ccccc1 (centres undefined) | inconclusive: 17.8 µM [inhibitor, partial curve, poor fit] | 
CCOC(=O)c1cc(-c2ccccc2)n(CC(=O)N(C)c2ccc(OC)cc2)c1C | inconclusive: 17.8 µM [inhibitor, partial curve, poor fit] | 
O=C(c1cccs1)N1CCCC(CN2CCCC2)CC1 (centres undefined) | inconclusive: 28.2 µM [inhibitor, partial curve] | 
CCCCC(CC)CNC(=O)CCCn1c(=O)[nH]c2ccsc2c1=O (centres undefined) | inconclusive: 22.4 µM [inhibitor, partial curve, poor fit] | 
Cc1cccc2c1nc1n2[C@@H](CNCc2ccc(S(C)(=O)=O)cc2)COC1 | inconclusive: 28.2 µM [inhibitor, partial curve] | 
COCC(=O)N1CCCN(c2nc3ncccc3o2)CC1 | active: 28.2 µM | 
COc1ccc(C)cc1Nc1nc(-c2cccc(Cl)c2)c2c(n1)-c1ccccc1OC2 | inactive | 
Fc1ccc(NC(=S)NC2CCCCCC2)cc1 | inactive | 
O=C(O)C/C(=C/c1cccc(O)c1)c1nc2ccccc2o1 | inactive | 
O=C(c1cc(C2CC2)nc2c1c(C1CCCN1)nn2-c1ccccc1)N1CCOCC1 (centres undefined) | inactive | 
CN(C)C[C@@H]1CN(C)C[C@H]1NC(=O)Cc1ccc(Cl)cc1 | inactive | 
Cc1nnc(SCC(=O)Nc2ccc(Br)cc2)[nH]c1=O | inconclusive: 1 µM [inhibitor, partial curve, poor fit] | 
CC1=C[C@@H](CNCC(C)C)[C@H](C(C)C)C[C@H]1Cc1nc2c(C)cccc2[nH]1 | inconclusive: 28.2 µM [inhibitor, single point] | 
CCC(C(=O)NCc1nnc2ccc(-c3ccccc3)nn12)c1ccccc1 (centres undefined) | active: 22.4 µM | 
COc1ccc(CNCC2COc3ccccc3O2)cc1 (centres undefined) | inconclusive: 39.8 µM [inhibitor, partial curve, poor fit] | 
CCCCN(CCCC)CC(O)Cn1cc(/C=C/C(=O)c2ccccc2)c2ccccc21 (centres undefined) | inconclusive: 28.2 µM [inhibitor, partial curve, poor fit] | 
CCC(CO)Nc1ncnc2c1CN(C1CCCNC1)C(=O)CN2C (centres undefined) | inconclusive: 56.2 µM [inhibitor, partial curve, poor fit] | 
COc1ccc(CN2CCn3c(nn(-c4ccc(Cl)cc4)c3=O)C2)cc1 | inconclusive: 22.4 µM [inhibitor, full curve, poor fit] | 
COc1cccc2c1cc1c(=O)n(CC(=O)NC3CC3)nc(C)n12 | inconclusive: 1.58 µM [inhibitor, partial curve, poor fit] | 
Cc1cnn(CCC(=O)N[C@@H]2CN(C3CCOCC3)C[C@H]2CN(C)C)c1 | inconclusive: 22.4 µM [inhibitor, single point] | 

SMILES | Potency | activity change, negative = inhibition
CNC(=O)c1nn(CN2CCN(Cc3ccc(OC)cc3)CC2)c(=O)c2ccccc12 | inactive | 
Nc1ncnc(Nc2ccc(Cl)c(Cl)c2)c1[N+](=O)[O-] | inactive | 
CC1=C[C@@H](CN2CCN(c3ccccn3)CC2)[C@H](C(C)C)C[C@H]1Cc1nnc(-c2cncn2C)o1 | inactive | 
Nc1ccccc1OCCCc1ccccc1 | inactive | 
Cc1ccc(NC(=O)C2CCN(c3cnc4ccccc4n3)CC2)cc1F | inconclusive: 15.8 µM [inhibitor, partial curve, poor fit] | 
CCOC(=O)c1ccc(NC(=O)N2CCc3c(nc4cc[nH]n4c3=O)C2)cc1 | active: 22.4 µM | 
CCN(CCCNC(=O)c1cc2cc3ccc(C)cc3nc2s1)c1ccccc1 | inconclusive: 2 µM [inhibitor, full curve, poor fit] | 
Cc1ccc(-c2nnc3ccc(NCCN(C)C)nn23)nc1 | inconclusive: 35.5 µM [inhibitor, partial curve, poor fit] | 
CC1=C(C(=O)c2ccccc2)C(c2ccc(Br)cc2)NC(=O)N1 (centres undefined) | inconclusive: 31.6 µM [inhibitor, single point] | 
O=C(Nc1ccccc1)c1ccc(NN=C2CCCCC2)c([N+](=O)[O-])c1 | inconclusive: 39.8 µM [inhibitor, single point] | 
CS(=O)(=O)c1ccc(CN2CCN3C(=O)N(C4CCCCC4)C[C@H]3C2)cc1 | inconclusive: 31.6 µM [inhibitor, single point] | 
CC(=O)NCCNc1cc(C)c2ccc(Cl)cc2n1 | active: 25.1 µM | 
c1ccc2oc(Oc3ccc(C4SCCS4)cc3)nc2c1 | inactive | 
N#Cc1ccc(Nc2nc(CN3CCOCC3)nc3sc4c(c23)CCCC4)cc1 | inactive | 
Cn1nc(NC(=O)Cc2c[nH]c(=O)[nH]c2=O)c2c(N3CCOCC3)cccc21 | inconclusive: 44.7 µM [inhibitor, partial curve, poor fit] | 
c1cnc2cc(-c3nc(C4CCOC4)no3)ccc2n1 (centres undefined) | inactive | 
COc1cccc(CN2CCCC3(Cc4ccccc4CNC3=O)C2)n1 (centres undefined) | inactive | 
O[C@@H]1C[C@@H](c2nc(-c3ccc4c(c3)OCO4)no2)N(Cc2ccc(-c3ccccn3)cc2)C1 | active: 25.1 µM | 
CCOC(=O)C1CCN(CC(=O)N2CCCc3c2c(=O)oc2ccc(OCc4ccccc4)cc32)CC1 | inconclusive: 25.1 µM [inhibitor, partial curve, poor fit] | 
CCS(=O)(=O)N1CCc2cc(C(=O)NCCc3ccccc3)ccc21 | inconclusive: 2 µM [inhibitor, full curve, poor fit] | 
CC(C)c1cc(CN(C)C(=O)CN2C(=O)COc3cccnc32)on1 | inconclusive: 35.5 µM [inhibitor, partial curve, poor fit] | 
COc1ccc(OCCCCn2c(C3CC(=O)N(c4cccc(Cl)c4)C3)nc3ccccc32)cc1 (centres undefined) | inconclusive: 10 µM [inhibitor, partial curve, poor fit] | 
C#CC(C)(CC)NC(=O)c1cnn2c(C(F)F)cc(-c3ccccc3OC)nc12 (centres undefined) |  | inconclusive: -40.2% [inhibitor]

SMILES | Potency | activity change, negative = inhibition
Cc1nn(Cc2ccc(F)cc2)c(C)c1NC(=O)Nc1ccc2c(c1)OCO2 | inactive | 
O=C(NCc1ccccn1)c1ccc2c(c1)-c1ccccc1C2 | inconclusive: 25.1 µM [inhibitor, single point] | 
CC(C)CCNC(=O)c1ccc2c(c1)NC(=O)C(CS(=O)(=O)Cc1cccc(Br)c1)N2 (centres undefined) | inconclusive: 2.82 µM [inhibitor, full curve, poor fit] | 
Cc1ccc(C2CCCN2Cc2nc(-c3ccco3)no2)cc1 (centres undefined) | inactive | 
Cc1ccc(OCCn2c(CN3CCOCC3)nc3scc(-c4cccs4)c3c2=O)cc1 | inconclusive: 28.2 µM [inhibitor, single point] | 
CN1c2cc(C(=O)Nc3ccc4c(c3)CCC4)ccc2C(=O)N2CCCCC21 (centres undefined) | inconclusive: 31.6 µM [inhibitor, partial curve, poor fit] | 
COc1ccc2nc(C#N)ccc2c1 | inactive | 
CCN(c1ccccc1)S(=O)(=O)c1cccc(C(=O)Nc2ccc3oc(C)nc3c2)c1 | inactive | 
CC(C)Cc1ccc(C(C)NC(C)C(=O)NC(N)=O)cc1 (centres undefined) | inactive | 
Cc1ccc(Cl)cc1NC(=O)CSC1=Nc2ccccc2C2=NC(Cc3ccccc3)C(=O)N12 (centres undefined) | inconclusive: 22.4 µM [inhibitor, partial curve, poor fit] | 
C#CCOc1ccc2ccccc2c1C=O | inactive | 
CC1(C)CC(=O)c2cc(-c3nc(-c4ccc(Cl)cc4)cs3)c(=O)n(-c3ccc(Cl)cc3)c2C1 |  | inconclusive: -30.8% [inhibitor]
COCC1(CNC(=O)c2nc3ccccc3[nH]2)C[C@@H](O)[C@@H](O)C1 (some centres undefined) | active: 35.5 µM | 
Cc1noc(C)c1Cn1cc2c3c(cccc31)[C@H](CC(C)C)N[C@H](C(=O)O)C2 | inconclusive: 39.8 µM [inhibitor, partial curve, poor fit] | 
Cc1ccc(OCCN(C)C(=O)c2cc(=O)[nH]c3ccccc23)cc1 | inactive | 
O=C(c1ccc(Cl)cc1)N1CCC(N2CCCS2(=O)=O)CC1 | inconclusive: 89.1 µM [inhibitor, single point] | 
COc1cccc(/C=N/NC(=O)NC2CCCCC2)c1O | inconclusive: 28.2 µM [inhibitor, partial curve, poor fit] | 
O=C(c1cc(C2=NNC(=Nc3ccccc3F)SC2)c[nH]1)N1CCCC1 | inactive | 
CCC1=C(C(=O)OC)C(c2cccc(C)c2)N2C(CC(=O)N3CCOCC3)=CSC2=N1 (centres undefined) | inconclusive: 31.6 µM [inhibitor, partial curve, poor fit] | 
Cc1ccc(Nc2nc(C)cc(C)n2)c(C(=O)O)c1 | inconclusive: 28.2 µM [inhibitor, single point] | 
CCCCCCCCN1C(=O)[C@@H](CC(=O)NCCc2ccccc2OC)C[C@@]2(C(=O)OC)C1=C[C@H](COCc1ccccc1)O[C@@H]2C | inconclusive: 22.4 µM [inhibitor, single point] | 
CC(On1nnc2ccc(Cl)cc21)C(=O)Nc1ccc(F)cc1F (centres undefined) | inactive | 
Cc1ccc(CNC(=O)c2ccc(CSCc3ccc(C)cc3)o2)cc1 | inconclusive: 1 µM [inhibitor, partial curve, poor fit] | 

— PubChem BioAssay AID1347165 (National Center for Advancing Translational Sciences (NCATS), 2019)
